Data reported in PubChem BioAssay AID2528 (National Center for Advancing Translational Sciences (NCATS), 2010).
Among all 350,000 compounds or so, about 700 (0.2%) were called active. The inconclusive results got no clear call from the source; some entries with a clear call stand among them for comparison. Calls follow the shape of the dose curve; as a rule, active = well fitted inhibition curve with a large enough effect; inconclusive = small, poorly fitted or top-dose-only effect; inactive = flat fitted curve, though single readings scatter. No potency is given beside an inconclusive call; the fits are too rough. Square brackets hold non-standard residues; d marks the D form. Peptide text beside a SMILES is read from it. * marks the point of attachment. Fmoc = O=C(OCC1c2ccccc2-c2ccccc21)*; Cha = N[C@@H](CC1CCCCC1)C(=O)O; AMC = Cc1cc(=O)oc2cc(N*)ccc12

Each compound was assayed against RecQ-like DNA helicase BLM (Homo sapiens) (UniProt P54132) (assay: qHTS Assay for Inhibitors of Bloom's syndrome helicase (BLM)). Conditions: recombinant BLM DNA unwinding, fluorescence dequenching; series mostly up to 56.1 µM.
Also: nearly all actives have a fitted effect of over 35% in size.
Potency is read from the fitted curve at half-maximal effect; tags tell the direction and shape of the fitted curve.

Sequence of UniProt P54132 (P54132 whole entry, looked up): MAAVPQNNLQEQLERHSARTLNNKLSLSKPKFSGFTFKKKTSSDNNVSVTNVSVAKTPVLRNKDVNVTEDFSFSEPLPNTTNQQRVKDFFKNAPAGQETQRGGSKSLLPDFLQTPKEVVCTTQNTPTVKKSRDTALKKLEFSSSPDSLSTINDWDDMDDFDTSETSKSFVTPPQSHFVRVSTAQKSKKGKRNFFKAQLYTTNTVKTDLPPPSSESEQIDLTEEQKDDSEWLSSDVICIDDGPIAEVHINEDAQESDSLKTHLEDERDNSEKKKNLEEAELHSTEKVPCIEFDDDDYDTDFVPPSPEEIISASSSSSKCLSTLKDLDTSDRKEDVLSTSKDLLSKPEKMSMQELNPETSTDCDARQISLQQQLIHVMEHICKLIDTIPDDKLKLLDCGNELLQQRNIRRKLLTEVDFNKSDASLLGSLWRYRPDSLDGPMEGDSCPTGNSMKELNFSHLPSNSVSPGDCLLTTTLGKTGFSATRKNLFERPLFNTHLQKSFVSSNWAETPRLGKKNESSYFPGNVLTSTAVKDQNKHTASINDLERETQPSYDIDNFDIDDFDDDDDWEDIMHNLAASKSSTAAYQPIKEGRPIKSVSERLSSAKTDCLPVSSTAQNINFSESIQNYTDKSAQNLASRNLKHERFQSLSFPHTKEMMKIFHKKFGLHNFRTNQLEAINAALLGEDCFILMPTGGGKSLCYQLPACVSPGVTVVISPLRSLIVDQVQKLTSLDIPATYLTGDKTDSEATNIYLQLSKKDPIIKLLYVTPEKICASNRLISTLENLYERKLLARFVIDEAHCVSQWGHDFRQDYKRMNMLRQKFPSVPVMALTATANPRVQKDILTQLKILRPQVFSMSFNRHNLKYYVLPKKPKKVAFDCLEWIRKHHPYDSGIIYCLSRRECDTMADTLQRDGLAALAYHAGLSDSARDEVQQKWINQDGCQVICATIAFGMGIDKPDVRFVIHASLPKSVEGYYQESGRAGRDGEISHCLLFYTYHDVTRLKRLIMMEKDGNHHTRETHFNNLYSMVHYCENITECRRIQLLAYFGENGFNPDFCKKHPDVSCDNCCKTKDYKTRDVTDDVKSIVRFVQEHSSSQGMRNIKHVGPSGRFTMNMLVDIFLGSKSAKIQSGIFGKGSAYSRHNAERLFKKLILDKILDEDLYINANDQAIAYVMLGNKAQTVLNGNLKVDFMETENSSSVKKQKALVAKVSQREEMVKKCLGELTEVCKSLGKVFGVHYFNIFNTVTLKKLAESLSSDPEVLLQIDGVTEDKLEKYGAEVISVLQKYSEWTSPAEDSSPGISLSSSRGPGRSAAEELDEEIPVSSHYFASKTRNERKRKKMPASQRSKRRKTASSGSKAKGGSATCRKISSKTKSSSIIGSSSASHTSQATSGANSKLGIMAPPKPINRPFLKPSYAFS

SMILES	Potency
O=C(CCN1CCN(S(=O)(=O)c2ccc(Cl)cc2)CC1)Nc1ccc(F)cc1	inconclusive [inhibitor, single point]
COc1cccc(NC(=O)/C(C#N)=C\c2cn(Cc3ccc(C)cc3)c3ccccc23)c1	inactive
O=C(Nc1ccccc1)N1CCC(c2nc(-c3ccc(S(=O)(=O)N4CCOCC4)cc3)no2)CC1	inactive
O=c1[nH]c2ccc(S(=O)(=O)N3CCN(c4ccccc4)CC3)cc2[nH]c1=O	inconclusive [inhibitor, single point]
O=C1OC2(c3ccc(O)cc3Oc3cc(O)ccc32)c2ccccc21	active: 35.5 µM
COc1ccc(-c2nc3ccccc3s2)cc1O	inconclusive [inhibitor, single point]
CCOc1cccc(CNc2ccc(O)cc2)c1OCc1ccc(Cl)cc1	active: 28.2 µM
CC(=O)N(/N=C1\Sc2ccccc2C1=O)c1cccc(C)c1	inconclusive [inhibitor, single point]
CC(C)=CCC/C(C)=C/COc1c2occc2cc2ccc(=O)oc12	inactive
O=C(CN1CCN(c2ccccc2F)CC1)NC(=O)NCc1ccco1	inconclusive [inhibitor, partial curve]
O=c1[nH]n2c(=O)c3c([nH]c2c1N=Nc1cccc(Cl)c1)CCCC3	inconclusive [inhibitor, single point]
Cc1[nH]n(-c2ncc(-c3ccccc3)s2)c(=O)c1C(c1ccc(Br)cc1)C(C#N)C#N (centres undefined)	inconclusive [inhibitor, single point]
c1coc(C2Nc3cccc4cccc(c34)N2)c1	inconclusive [inhibitor, partial curve]
O=C(COC(=O)c1cccnc1)Nc1cccc2ccccc12	inconclusive [inhibitor, single point]
O=C1NC(=O)/C(=C\c2ccc(O)cc2O)S1	inactive
N#CC1=C2SCN(Cc3ccco3)CN2C(=O)CC1c1cccc2ccccc12 (centres undefined)	inconclusive [inhibitor, single point]
NCCCC[C@H](NC(=O)[C@H](Cc1c[nH]c2ccccc12)NC(=O)[C@H](CC(=O)O)NC(=O)[C@H](Cc1cnc[nH]1)NC(=O)[C@H](CO)NC(=O)[C@H](Cc1c[nH]c2ccccc12)NC(=O)[C@H](Cc1cnc[nH]1)NC(=O)[C@@H]1CCC(=O)N1)C(=O)N1CCC[C@H]1C(=O)NCC(N)=O	inactive
O=[N+]([O-])c1cc2oc3c(c2c(C=NCc2ccccc2)c1O)CCCC3	inactive
CCN1/C(=C/C=C/C=C/C=C/c2sc3ccccc3[n+]2CC)Sc2ccccc21	inactive
Cc1ccc(-n2cccc2/C=C2\C(=N)N3N=C(c4ccco4)SC3=NC2=O)cc1	active: 20 µM
N#C/C(=C\C1=C(N2CCOCC2)C(=C\c2ccccc2)/CC1)C(=O)Nc1ccccc1F	inconclusive [inhibitor, partial curve]
CCCN(C(=O)c1cc2c(s1)CCC2)c1c(N)n(Cc2ccccc2)c(=O)[nH]c1=O	active: 14.1 µM

SMILES	Potency
Nc1c(C=C2C=CC(=O)C=C2)c(=O)nc2snc(SCc3ccccc3)n12	inconclusive [inhibitor, single point]
COc1cc(OC)c(NS(=O)(=O)c2ccc3oc(=O)c4ncn(C)c4c3c2)cc1Cl	inactive
Cc1coc2c1C(=O)C(=O)c1c-2ccc2c(C)cccc12	inconclusive [inhibitor, single point]
N=C1/C(=C/c2coc3ccccc3c2=O)C(=O)N=C2SC(c3ccco3)=NN12	inconclusive [inhibitor, single point]
COc1cccc(Nc2nc(N)c([N+](=O)[O-])c(NCc3ccccc3)n2)c1	inconclusive [inhibitor, single point]
Cc1ccc(NC(=O)CN2C(=O)N/C(=C/c3ccccc3OCc3cccc(C(=O)O)c3)C2=O)cc1	inconclusive [inhibitor, single point]
Cc1cc(=O)oc2cc(OCC(=O)N/N=C/c3ccccc3O)ccc12	inconclusive [inhibitor, partial curve]
COc1ccc(C(=O)N/N=C/c2sc(N3CCOCC3)nc2-c2ccccc2)cc1OC	inconclusive [inhibitor, single point]
CC(C)(C)c1nc2ccccc2c2nnc(SCC(=O)Nc3nc4ccccc4s3)n12	inconclusive [inhibitor, single point]
COc1ccc2c(Sc3ccccc3)c(C(=O)NCCCN3CCCCC3)[nH]c2c1	inactive
CCc1nnc(NS(=O)(=O)c2ccc(NC(=S)NC(=O)/C=C/c3ccc(OC)cc3)cc2)s1	inconclusive [inhibitor, single point]
Cc1ccc(C(=O)OCC(=O)NCc2ccco2)s1	inconclusive [inhibitor, single point]
NCCC[C@@H](CC(=O)N[C@@H]1CCNC[C@H]1C(=O)N[C@H](CC(=O)N[C@@H](CCC(=O)O)CC(=O)O)Cc1ccccc1)NC(=O)C[C@H](CO)NC(=O)[C@@H]1CNCC[C@H]1N	active: 22.4 µM
Cc1ccc(NC(=O)CN2C(=O)N/C(=C/c3cccn3-c3ccc(C(=O)O)cc3)C2=O)cc1	inconclusive [inhibitor, single point]
O=c1oc2cc(O)ccc2c2oc3cc(O)ccc3c12	inconclusive [inhibitor, single point]
O=S(=O)(c1ccc2nc(-c3ccco3)c(-c3ccco3)nc2c1)N1CCOCC1	active: 14.1 µM
c1ccc(-c2cnc(CSc3ncnc4sccc34)o2)cc1	inactive
CCn1c(SCC(=O)N/N=C/C=C/c2ccco2)nc2ccccc21	inconclusive [inhibitor, single point]
Cn1cccc1CC(=O)N/N=C/C=C/c1ccco1	active: 25.1 µM
COc1ccc(-n2nc3c(N4CCCC(C(=O)NCc5ccc(C)cc5)C4)nnc(C)c3c2C)cc1 (centres undefined)	inactive
Cc1ccc(/C=N/Nc2cn[nH]c(=O)n2)o1	inactive
O=C1OC(c2cccs2)=N/C1=C/c1ccc(-c2cccc(C(=O)O)c2)o1	inactive

SMILES	Potency
COc1cc2ccccc2cc1C(=O)NC(=S)Nc1cccc(C(=O)O)c1	inconclusive [inhibitor, single point]
Cc1ccn(CC(=O)N/N=C/c2cc([N+](=O)[O-])ccc2O)n1	inactive
O=C(N/N=C/c1cc2c(cc1Br)OCO2)c1cc2ccccc2o1	inconclusive [inhibitor, single point]
Cc1cccnc1Nc1nc(-c2ccc(O)c(O)c2)cs1	inconclusive [inhibitor, partial curve]
COc1ccc(NC(=O)c2cc(-c3ccco3)nc3ccccc23)cc1S(=O)(=O)N1CCOCC1	inconclusive [inhibitor, single point]
Cc1ccc(C(=O)NNC(=S)Nc2cccc(Cl)c2Cl)cc1[N+](=O)[O-]	inconclusive [inhibitor, single point]
CC1=Nc2nc(N3CCCCC3)c(C#N)c3c4c(nc(c23)N1)N(c1ccc(C(C)C)cc1)C(=O)C4	inconclusive [inhibitor, single point]
O=C(NC(=S)Nc1cccc(S(=O)(=O)NC2=NCCC2)c1)c1cc(-c2ccco2)nc2ccccc12	inconclusive [inhibitor, partial curve]
Cc1cc(=O)oc2cc(NC(=O)[C@H](CCCCN)NC(=O)[C@H](CC3CCCCC3)NC(=O)OCC3c4ccccc4-c4ccccc43)ccc12 (Fmoc-[Cha]-Lys-{AMC})	inconclusive [inhibitor, single point]
Cc1ccc2cc3c(N)c(C(=O)Nc4c(C)[nH]c(=O)[nH]c4=O)sc3nc2c1	inconclusive [inhibitor, single point]
O=C1/C(=C/C=C/c2ccco2)SC(=S)N1c1ccc(O)cc1	inconclusive [inhibitor, partial curve]
Cc1[nH][nH]c(=O)c1C(c1ccc(-c2ccc(Cl)cc2Cl)o1)c1c(C)[nH][nH]c1=O	inconclusive [inhibitor, single point]
CC[n+]1c(/C=C/c2ccc(N(C)C)cc2)ccc2ccccc21	inconclusive [inhibitor, single point]
CC1CCC2(CC1)NC(=O)N(CC(=O)Nc1sc3c(c1C(N)=O)CCC3)C2=O (centres undefined)	inconclusive [inhibitor, partial curve]
Cc1cc(C)c(C(=O)CSc2nnc(N)s2)c(C)c1	inactive
O=C(Nc1ccc2oc(-c3ccncc3)nc2c1)c1cccs1	inconclusive [inhibitor, single point]
CC(C)OCCCNC1=C(Cl)C(=O)c2ccccc2C1=O	inconclusive [inhibitor, partial curve]
Cc1cc(C)cc(NC(=O)Cn2nnc(C(=O)NCc3ccc(F)cc3)c2N)c1	inactive
CCOC(=O)c1cc2c(=O)n3ccccc3nc2n(Cc2ccco2)c1=NC(=O)c1cccc(OC)c1	inconclusive [inhibitor, single point]
Cc1cccc(N2CCN(S(=O)(=O)c3ccc4[nH]c(=O)c(=O)[nH]c4c3)CC2C)c1 (centres undefined)	inconclusive [inhibitor, single point]
